# Laboratory results taken from the supplement of paper PMC4967469.
# Lines with a small IC50 respond at low doses; where the fit passes the top or lowest dose, that dose stands as a limit. AUC, from the same fit, is the share of area under the viability curve across the 256-fold dose range; it is 1 without any effect and falls as sensitivity rises. For part of these data: The top dose, if marked as inferred, comes from the curve model; the source does not state it. For part of these data: Where an entry number is given, a second screen of the drug exists; the two often differ.
# Columns and labels:
# Assay in all cases: Viability of human cancer cell lines after 72 h of drug (GDSC screen)
# Tamoxifen = compound: CC/C(=C(\c1ccccc1)c1ccc(OCCN(C)C)cc1)c1ccccc1 [Tamoxifen]; conditions: top dose 5 µM
# Method: (§1)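 Human cancer cell lines in 384-well plates, medium with 10% serum, drug for 72 h over a 256-fold dose range (nine 2-fold or five 4-fold steps up to the top dose). Adherent lines were fixed and stained with the nucleic acid dye Syto60, suspension lines read with resazurin; signal relative to control wells, capped at 0 and 100%. One two-parameter sigmoid per drug and line, fitted in a mixed model over all curves with the slope shared within a line.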
# VNLG/124 = compound: CCCC(=O)OCc1ccc(OC(=O)/C=C(C)/C=C/C=C(C)/C=C/C2=C(C)CCCC2(C)C)cc1 [VNLG/124]; conditions: top dose 5.12 µM; top dose inferred
# Method: as §1
# Elesclomol = compound: CN(NC(=O)CC(=O)NN(C)C(=S)c1ccccc1)C(=S)c1ccccc1 [Elesclomol]; conditions: top dose 0.2 µM; top dose inferred
# Method: as §1
# HG-5-88-01 = compound: COc1cc(N2CCC(C(N)=O)CC2)ccc1Nc1nc(N)c(Cl)c(Nc2ccccc2S(=O)(=O)C(C)C)n1 [HG-5-88-01]; conditions: top dose 10 µM; top dose inferred
# Method: as §1
# Bleomycin = compound: Cc1c(N)nc([C@H](CC(N)=O)NC[C@H](N)C(N)=O)nc1C(=O)N[C@H](C(=O)N[C@H](C)[C@@H](O)[C@H](C)C(=O)N[C@H](C(=O)NCCc1nc(-c2nc(C(=O)NCCC[S+](C)C)cs2)cs1)[C@@H](C)O)[C@@H](OC1OC(CO)C(O)C(O)C1OC1OC(CO)C(O)C(OC(N)=O)C1O)c1cnc[nH]1 [Bleomycin]
# Method: as §1
# Masitinib = compound: Cc1ccc(NC(=O)c2ccc(CN3CCN(C)CC3)cc2)cc1Nc1nc(-c2cccnc2)cs1 [Masitinib]; conditions: top dose 20 µM
# Method: as §1
# LAQ824 = compound: O=C(/C=C/c1ccc(CN(CCO)CCc2c[nH]c3ccccc23)cc1)NO [LAQ824]; conditions: top dose 1.024 µM; top dose inferred
# Method: as §1
# OSI-930 = compound: O=C(Nc1ccc(OC(F)(F)F)cc1)c1sccc1NCc1ccnc2ccccc12 [OSI-930]; conditions: top dose 10.24 µM
# Method: as §1
# BX-912 = compound: O=C(Nc1cccc(Nc2ncc(Br)c(NCCc3cnc[nH]3)n2)c1)N1CCCC1 [BX-912]; conditions: top dose 10.24 µM; top dose inferred
# Method: as §1
# NSC-87877 = compound: O=S(=O)(O)c1ccc2cc(N=Nc3cc(S(=O)(=O)O)c4cccnc4c3O)ccc2c1 [NSC-87877]; conditions: top dose 16 µM; top dose inferred
# Method: as §1
# [1] = top dose 50 µM, screen: GDSC drug entry 1378, top dose inferred
# [2] = top dose 64 µM, screen: GDSC drug entry 190
Cell Line,AUC (Tamoxifen),IC50 (Tamoxifen) [µM],AUC (VNLG/124),IC50 (VNLG/124) [µM],AUC (Elesclomol),IC50 (Elesclomol) [µM],AUC (HG-5-88-01),IC50 (HG-5-88-01) [µM],AUC (Bleomycin; [1]),IC50 (Bleomycin; [1]) [µM],AUC (Bleomycin; [2]),IC50 (Bleomycin; [2]) [µM],AUC (Masitinib),IC50 (Masitinib) [µM],AUC (LAQ824),IC50 (LAQ824) [µM],AUC (OSI-930),IC50 (OSI-930) [µM],AUC (BX-912),IC50 (BX-912) [µM],AUC (NSC-87877),IC50 (NSC-87877) [µM]
"MFE-296 (endometrium, adherent)",0.965,> 5,0.985,> 5.12,0.604,0.0247,0.937,> 10,0.437,2.07,0.204,0.491,0.944,> 20,0.454,0.0475,0.966,> 10.2,0.939,> 10.2,0.966,> 16
"NCI-H1568 (lung adenocarcinoma, adherent)",0.94,> 5,0.976,> 5.12,0.8,0.126,0.916,> 10,0.372,1.27,0.464,3.12,0.948,> 20,0.367,0.0249,0.963,> 10.2,0.927,> 10.2,0.981,> 16
"TE-9 (oesophagus, adherent)",0.978,> 5,0.981,> 5.12,0.794,0.0966,0.897,> 10,0.608,6.25,0.72,17.3,0.962,> 20,0.613,0.132,0.975,> 10.2,0.968,> 10.2,0.987,> 16
"DBTRG-05MG (glioma, adherent)",0.982,> 5,0.984,> 5.12,0.575,0.0208,0.868,> 10,0.558,4.62,0.554,5.76,0.901,> 20,0.591,0.118,0.962,> 10.2,0.936,> 10.2,0.976,> 16
"TT (thyroid, adherent)",0.98,> 5,0.972,> 5.12,0.68,0.049,0.977,> 10,0.815,42.3,0.84,> 64,0.976,> 20,0.644,0.188,0.978,> 10.2,0.885,> 10.2,0.97,> 16
"LXF-289 (lung adenocarcinoma, adherent)",0.939,> 5,0.982,> 5.12,0.574,0.0198,0.958,> 10,0.326,1.03,0.139,0.303,0.853,15.2,0.446,0.0456,0.972,> 10.2,0.769,3.8,0.987,> 16
"HCC-78 (lung adenocarcinoma, adherent)",0.919,> 5,0.983,> 5.12,0.977,> 0.2,0.654,1.81,0.395,1.52,0.442,2.71,0.878,> 20,0.522,0.0741,0.93,> 10.2,0.932,> 10.2,0.983,> 16
"MOG-G-CCM (glioma, adherent)",0.964,> 5,0.945,> 5.12,0.342,0.00421,0.943,> 10,0.862,> 50,,,0.876,> 20,0.44,0.0427,0.927,> 10.2,0.928,> 10.2,0.924,> 16
"SBC-3 (small cell lung carcinoma, adherent)",0.988,> 5,0.989,> 5.12,0.402,0.00692,0.968,> 10,0.463,2.5,0.155,0.398,0.713,4.69,0.153,0.00628,0.857,7.17,0.692,2.08,0.989,> 16
"HGC-27 (stomach, adherent)",0.934,> 5,0.983,> 5.12,0.417,0.0077,0.871,7.08,0.356,1.34,0.318,1.36,0.878,15.1,0.262,0.0153,0.97,> 10.2,0.762,3.15,0.979,> 16
"COLO-668 (small cell lung carcinoma, adherent)",0.986,> 5,0.989,> 5.12,0.96,> 0.2,0.925,> 10,0.931,> 50,0.059,< 0.25,0.889,> 20,0.316,0.0195,0.988,> 10.2,0.918,> 10.2,0.965,> 16
"NCI-SNU-5 (stomach, suspension)",0.983,> 5,0.982,> 5.12,0.513,0.0136,0.988,> 10,0.777,20.3,0.29,1.01,0.982,> 20,0.722,0.276,0.97,> 10.2,0.989,> 10.2,0.982,> 16
"NCI-H1944 (lung adenocarcinoma, adherent)",0.963,> 5,0.949,> 5.12,0.439,0.00843,0.849,8.29,0.469,2.56,0.139,0.265,0.86,18.6,0.227,0.0096,0.948,> 10.2,0.853,8.86,0.979,> 16
"GT3TKB (stomach, adherent)",0.927,> 5,0.984,> 5.12,0.622,0.0259,0.985,> 10,0.091,< 0.195,0.05,< 0.25,0.988,> 20,0.472,0.0541,0.976,> 10.2,0.97,> 10.2,0.979,> 16
"L-428 (Hodgkin lymphoma, suspension)",0.99,> 5,0.989,> 5.12,0.895,0.193,0.969,> 10,0.895,48.2,0.895,61.3,0.953,> 20,0.517,0.0708,0.961,> 10.2,0.981,> 10.2,0.986,> 16
"CHSA0011 (chondrosarcoma, adherent)",0.961,> 5,0.956,> 5.12,0.738,0.0803,0.831,> 10,0.416,1.67,0.813,53.9,0.961,> 20,0.768,0.545,0.973,> 10.2,0.813,8.57,0.978,> 16
"KM12 (large intestine, adherent)",0.981,> 5,0.979,> 5.12,0.936,> 0.2,0.984,> 10,0.907,> 50,0.494,3.86,0.897,> 20,0.467,0.0516,0.952,> 10.2,0.826,6.91,0.954,> 16
"SLVL (B-cell lymphoma, suspension)",0.96,> 5,0.975,> 5.12,0.859,0.182,0.943,> 10,0.639,7.78,0.266,0.823,0.862,18.9,0.318,0.0191,0.977,> 10.2,0.725,2.92,0.983,> 16
"NCI-H1781 (lung adenocarcinoma, adherent)",0.988,> 5,0.989,> 5.12,0.635,0.0295,0.971,> 10,0.289,0.794,0.376,1.83,0.983,> 20,0.832,0.657,0.988,> 10.2,0.989,> 10.2,0.989,> 16
"KINGS-1 (glioma, adherent)",0.978,> 5,0.97,> 5.12,0.802,0.146,0.972,> 10,0.803,36.6,0.952,> 64,0.844,> 20,0.561,0.0997,0.968,> 10.2,0.911,> 10.2,0.981,> 16
"JHU-022 (head and neck, adherent)",0.954,> 5,0.981,> 5.12,0.301,0.00294,0.883,> 10,0.341,0.999,0.79,37.4,0.906,> 20,0.654,0.192,0.982,> 10.2,0.931,> 10.2,0.977,> 16
"HCC-15 (lung squamous cell carcinoma, adherent)",0.95,> 5,0.979,> 5.12,0.67,0.0429,0.903,> 10,0.84,49.4,0.72,20.4,0.928,> 20,0.569,0.104,0.966,> 10.2,0.925,> 10.2,0.982,> 16
"SW982 (soft tissue, adherent)",0.967,> 5,0.947,> 5.12,0.449,0.00905,0.886,> 10,0.227,0.487,0.209,0.541,0.87,19.6,0.472,0.0535,0.983,> 10.2,0.985,> 10.2,0.985,> 16
